# PMC3440242 (Peptides, 2012)
# How the values were obtained:
# human Y2 receptor [1] = assay: Unmasking of surface human Y2 receptor in adherent CHO cells; assay type: cell-based
# human Y2 receptor [2] = details: three experiments
structure (smiles),measurement,setting,value
"CCN1C(=O)C=CC1=O [NEM, N-Ethylmaleimide]","sites unmasked, relative to sites made accessible by PAO","human Y2 receptor [1]; NEM at 30 μM, adherent hY2-CHO cells",less than 50%
C[C@@H]1CC[C@@]2(OC1)O[C@H]1[C@@H](O)[C@H]3[C@@H]4CC[C@H]5C[C@@H](O[C@@H]6O[C@H](CO)[C@H](O[C@@H]7O[C@H](CO)[C@@H](O)[C@H](O[C@@H]8OC[C@@H](O)[C@H](O)[C@H]8O)[C@H]7O[C@@H]7O[C@H](CO)[C@H](O)[C@H](O[C@@H]8O[C@H](CO)[C@@H](O)[C@H](O)[C@H]8O)[C@H]7O)[C@H](O)[C@H]6O)[C@H](O)C[C@]5(C)[C@H]4CC[C@]3(C)[C@H]1[C@@H]2C [digitonin],increase of labeling of adherent confluent Y2-CHO cells,"human Y2 receptor [1]; 30 μM agent, 20 min at 37 °C, 50 pM [^125I] hPYY(3-36), human, at least three experiments",about 4 fold
CCCCCCCCCCCCCCCCCCOC[C@H](COP(=O)([O-])OCC[N+](C)(C)C)OC [edelfosine],concentration at which Y2 unmasking saturates,human Y2 receptor [1]; adherent Y2-CHO cells,about 60 μM
CCCCC[C@@H](O)[C@H]1C(=O)O[C@H](C)[C@@H](O)/C=C/C=C/C=C/C=C/C=C(\C)[C@@H](O)C[C@H](O)C[C@H](O)C[C@H](O)C[C@H](O)C[C@H](O)C[C@@H]1O [filipin III],concentration already causing loss of sites in mechanically dispersed cells,human Y2 receptor [2],6 µM
